Measurements reported in patent US12419848B2, “Treatment of hyperinflammatory syndrome” (priority 2020, dated 2025).

System: primary progressive multiple sclerosis

Compound | effect on symptoms (prior treatment) (in vivo) | walking distance without an aid (after 3 months) | EDSS (sublingual 4×100 mg/d, after 3 months, before 7.5)
ocrelizumab: prior treatment of primary progressive multiple sclerosis | did not improve the symptoms | – | –
CCN(CC)CC(=O)Nc1c(C)cccc1C [lidocaine] | – | about 120 meters | 5.5
